Reference: paper PMC6704105
Changes are numbered by the printed parent chain. In names and notes the source's numbering stands. Where two headings read alike, the source gives them in different places. These are yes or no findings as the source states them, for the method shown. For some assays here: Binding seen in cells or lysates may run through a third protein. Some binding calls cover weakened binding; strength is not graded here. For some assays here: Sequences can lack the tags named with a protein.

The chains behind the UniProt entries cited, without tags or fusion partners.
UniProt P35222: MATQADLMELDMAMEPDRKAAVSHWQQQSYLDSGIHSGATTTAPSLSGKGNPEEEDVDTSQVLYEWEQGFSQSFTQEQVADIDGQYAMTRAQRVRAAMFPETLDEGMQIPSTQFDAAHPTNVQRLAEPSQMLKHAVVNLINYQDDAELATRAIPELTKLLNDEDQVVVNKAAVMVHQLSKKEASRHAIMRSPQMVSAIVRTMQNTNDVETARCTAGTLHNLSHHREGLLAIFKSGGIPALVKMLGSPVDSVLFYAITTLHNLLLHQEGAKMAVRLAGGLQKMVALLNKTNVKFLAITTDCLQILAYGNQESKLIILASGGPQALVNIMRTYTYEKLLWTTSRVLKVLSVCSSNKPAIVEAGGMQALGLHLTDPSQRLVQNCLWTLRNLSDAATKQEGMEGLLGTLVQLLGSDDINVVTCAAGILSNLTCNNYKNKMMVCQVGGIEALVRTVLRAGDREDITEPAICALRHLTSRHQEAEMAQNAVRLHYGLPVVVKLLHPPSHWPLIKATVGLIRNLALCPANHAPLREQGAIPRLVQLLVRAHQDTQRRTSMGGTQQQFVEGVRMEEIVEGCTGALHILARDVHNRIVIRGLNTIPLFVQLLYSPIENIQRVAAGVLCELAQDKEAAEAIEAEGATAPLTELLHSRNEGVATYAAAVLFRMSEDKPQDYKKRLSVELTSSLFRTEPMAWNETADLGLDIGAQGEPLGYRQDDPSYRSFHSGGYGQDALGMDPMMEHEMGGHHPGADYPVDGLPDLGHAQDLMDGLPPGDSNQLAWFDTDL
UniProt O14744: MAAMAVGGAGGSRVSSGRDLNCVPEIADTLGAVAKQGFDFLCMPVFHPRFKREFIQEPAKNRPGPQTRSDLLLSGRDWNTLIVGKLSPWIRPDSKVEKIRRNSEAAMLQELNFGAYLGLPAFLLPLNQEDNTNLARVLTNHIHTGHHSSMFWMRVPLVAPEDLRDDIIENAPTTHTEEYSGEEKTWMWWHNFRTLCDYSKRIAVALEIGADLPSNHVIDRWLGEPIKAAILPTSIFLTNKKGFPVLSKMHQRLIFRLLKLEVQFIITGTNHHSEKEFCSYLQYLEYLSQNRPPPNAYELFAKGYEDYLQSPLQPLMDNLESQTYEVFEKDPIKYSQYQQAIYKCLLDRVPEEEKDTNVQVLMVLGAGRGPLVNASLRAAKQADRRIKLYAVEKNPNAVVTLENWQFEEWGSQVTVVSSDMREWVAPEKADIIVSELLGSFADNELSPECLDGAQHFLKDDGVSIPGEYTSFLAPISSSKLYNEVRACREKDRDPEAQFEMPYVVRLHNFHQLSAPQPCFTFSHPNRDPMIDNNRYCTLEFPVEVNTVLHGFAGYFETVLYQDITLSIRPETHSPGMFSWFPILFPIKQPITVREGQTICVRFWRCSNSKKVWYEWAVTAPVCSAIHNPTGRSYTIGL
UniProt P05412: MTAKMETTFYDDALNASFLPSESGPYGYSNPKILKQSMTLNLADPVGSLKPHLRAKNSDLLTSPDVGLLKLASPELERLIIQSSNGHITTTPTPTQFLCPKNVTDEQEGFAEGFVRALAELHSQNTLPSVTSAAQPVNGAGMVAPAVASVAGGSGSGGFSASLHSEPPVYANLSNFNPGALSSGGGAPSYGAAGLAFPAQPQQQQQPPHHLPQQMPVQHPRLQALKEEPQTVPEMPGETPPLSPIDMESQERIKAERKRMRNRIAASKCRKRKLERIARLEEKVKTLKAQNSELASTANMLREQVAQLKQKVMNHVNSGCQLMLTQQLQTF
UniProt O15379: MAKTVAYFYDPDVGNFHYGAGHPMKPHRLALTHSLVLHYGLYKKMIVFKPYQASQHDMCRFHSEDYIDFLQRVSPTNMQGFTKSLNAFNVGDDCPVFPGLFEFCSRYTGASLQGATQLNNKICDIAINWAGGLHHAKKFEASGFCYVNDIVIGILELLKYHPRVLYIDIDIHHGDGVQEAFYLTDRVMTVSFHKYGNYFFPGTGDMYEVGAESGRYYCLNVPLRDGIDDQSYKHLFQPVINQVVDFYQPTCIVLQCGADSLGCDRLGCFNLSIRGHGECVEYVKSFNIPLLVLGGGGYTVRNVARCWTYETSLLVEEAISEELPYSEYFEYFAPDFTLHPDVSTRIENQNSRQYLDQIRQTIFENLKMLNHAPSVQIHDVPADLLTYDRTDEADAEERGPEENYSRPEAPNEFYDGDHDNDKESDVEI

Tests used:
[1] = biological target: T1, Jun Dimerization Protein 2 (JDP2) (human (endogenous in 293FT and the other indicated cells)) (UniProt Q8WYK2); assay: co-IP; IP with antibodies to β-catenin, JDP2, PRMT5 or ATM from the indicated cells treated with CPT (10 μM, 1 h), compared with untreated cells in several panels; also siRNA to β-catenin or PRMT5, ATM inhibitor KU55933 (10 μM, 1 h) pretreatment, transfected fragments, mutants or Flag-β-catenin
T1 sequence: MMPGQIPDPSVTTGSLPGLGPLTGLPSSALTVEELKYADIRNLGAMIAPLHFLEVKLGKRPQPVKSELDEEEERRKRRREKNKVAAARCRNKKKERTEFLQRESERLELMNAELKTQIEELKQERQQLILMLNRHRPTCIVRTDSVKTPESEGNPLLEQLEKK

[2] = biological target: T2, Human recombinant His-JDP2 protein (human) (UniProt Q8WYK2); assay: co-IP; in vitro binding assay: Flag antibody-immunoprecipitated lysates of CPT-treated cells transfected with Flag-β-catenin, added to recombinant His-JDP2 and recombinant histone; anti-His antibody; only the target purified
T2 sequence: T1 sequence

[3] = biological target: β-catenin (human (endogenous in 293FT, OVCAR3, MCF-7, A549)) (UniProt P35222); assay: co-IP; untreated cells (no CPT)
[4] = biological target: arginine methyltransferase 5 (PRMT5) (human (endogenous in 293FT and the other indicated cells)) (UniProt O14744); assay: co-IP; IP with antibodies to β-catenin, JDP2, PRMT5 or ATM from the indicated cells treated with CPT (10 μM, 1 h), compared with untreated cells in several panels; also siRNA to β-catenin or PRMT5, ATM inhibitor KU55933 (10 μM, 1 h) pretreatment, transfected fragments, mutants or Flag-β-catenin
[5] = biological target: β-catenin (human (endogenous in 293FT, OVCAR3, MCF-7, A549)) (UniProt P35222); assay: as above
[6] = biological target: β-catenin (human (endogenous in 293FT, OVCAR3, MCF-7, A549)) (UniProt P35222); assay: far-Western, overlay or dot blot; proteins immunoprecipitated by anti-β-catenin antibody separated by SDS-PAGE and transferred to PVDF; recombinant His-JDP2 at 5 μg/ml, 4 °C, 18 h; detected with anti-His, reblotted with anti-β-catenin; only the binder purified
[7] = biological target: T1, Jun Dimerization Protein 2 (JDP2) (human (endogenous in 293FT and the other indicated cells)); assay: co-IP; IP with antibodies to β-catenin, JDP2, PRMT5 or ATM from the indicated cells treated with CPT (10 μM, 1 h), compared with untreated cells in several panels; also siRNA to β-catenin or PRMT5, ATM inhibitor KU55933 (10 μM, 1 h) pretreatment, transfected fragments, mutants or Flag-β-catenin; remark: listed apart in the source
[8] = biological target: arginine methyltransferase 5 (PRMT5) (human (endogenous in 293FT and the other indicated cells)) (UniProt O14744); assay: co-IP; untreated cells (no CPT)

c-Jun (from UniProt P05412 1-331) was tested, and the binding [1] was “binds”.

“HDAC3 (from UniProt O15379 1-428) (enzyme)” was tested, and the binding [1] was “binds”.

In the case of “Flag-tagged β-catenin (from UniProt P35222 1-781)”, the binding [1] is reported as “binds” and the binding [2] is reported as “binds”.

B1: Jun Dimerization Protein 2 (JDP2) (protein, UniProt Q8WYK2 1-163)
chain: T1 sequence
For B1, the binding [3] was “no binding (condition: untreated cells (without CPT))”, the binding [4] was “binds” and the binding [5] was “binds”.

B2: Human recombinant His-JDP2 protein (protein, UniProt Q8WYK2 1-163)
chain: T1 sequence
B2 was tested, and the binding [6] was “binds”.

B3: ATF3 (protein, UniProt P18847 1-181)
chain: MMLQHPGQVSASEVSASAIVPCLSPPGSLVFEDFANLTPFVKEELRFAIQNKHLCHRMSSALESVTVSDRPLGVSITKAEVAPEEDERKKRRRERNKIAAAKCRNKKKEKTECLQKESEKLESVNAELKAQIEELKNEKQHLIYMLNLHRPTCIVRAQNGRTPEDERNLFIQQIKEGTLQS
For B3, the binding [7] was “binds”.

B4: phosphomimetic JDP2/T116D mutant (protein, UniProt Q8WYK2 1-163)
chain: T1 sequence with T116D
In the case of B4, the binding [8] is reported as “binds”.

B5: JDP2/T116A mutant (protein, UniProt Q8WYK2 1-163)
chain: T1 sequence with T116A
For B5, the binding [4] was “no binding”.
